From PubChem BioAssay AID686970 (National Center for Advancing Translational Sciences (NCATS), 2013)
The whole screen tested about 360,000 compounds, of which about 6,000 (1.7%) were called active. The shares of active, inactive and inconclusive entries below differ from those in the screen. Calls come from the whole dose curve; as a rule, active = well fitted cell-killing curve with a large enough effect; inconclusive = small, poorly fitted or top-dose-only effect, or effect the other way; inactive = flat fitted curve, though single readings scatter. Potencies of inconclusive entries are left out as doubtful fits.

assay: qHTS for induction of synthetic lethality in tumor cells producing 2HG: qHTS for the HT-1080-NT fibrosarcoma cell line; settings: HT-1080-NT fibrosarcoma viability, CellTiter-Glo ATP luminescence, 48 h; activity, negative = less viability: at 46.1 µM (top of the series) unless noted;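 note: NT is the 2HG producing partner of a matched IDH1 knockdown line; nearly all actives have a fitted effect of over 55% in size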;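 for activity, negative = less viability: 0% = DMSO-treated cells and -100% = media-only wells without cells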
Method in brief: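 Viability by CellTiter-Glo luminescence after 48 h compound exposure at 37C of HT-1080-NT cells (750/well, RPMI, 5% FBS). % activity scaled between DMSO wells and medium-only wells, then curve-fitted and categorized by curve class.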
Potency is the fitted concentration of half-maximal effect; tags give direction and shape of the fitted curve.

Structure (SMILES) | Potency | activity, negative = less viability
OC(CNCc1ccc(-c2ccccc2)cc1)c1ccccc1 (stereo not given) | active: 20.6 µM | –
COc1ccc(C(=O)/C=C/Nc2ccc(S(=O)(=O)Nc3nc(C)cc(C)n3)cc2)c(OC)c1 | – | inconclusive: -27.1% [cytotoxic]
CCOC(=O)N1CCN(C(=O)COc2cccc3c2CCN(Cc2ccccc2F)C3=O)CC1 | inactive | –
CC(C)(C)c1ccc(C(=O)N/C(=C\c2cccs2)C(=O)NCc2ccco2)cc1 | inactive | –
Cc1ccc(C(=O)CC(=O)c2cccc(F)c2)c(O)c1 | inconclusive [cytotoxic, single point] | –
CCOC(=O)Cn1c2ccccc2n2nc(CCC(=O)O)c(=O)nc12 | inactive | –
COC(=O)CCC(C)C1CCC2C3CCC4CC(O)CCC4(C)C3CC(O)C12C (stereo not given) | inconclusive [cytotoxic, single point] | –
Cc1cccc(NS(=O)(=O)c2cccc(C(=O)NCC(c3ccc(F)cc3)N3CCOCC3)c2)c1 (stereo not given) | inactive | –
Cc1ccc(C)c(C(=O)CN2C(=O)NC3(CCC(C)CC3)C2=O)c1 (stereo not given) | inactive | –
N=c1c(C(=O)NC2CCCCC2)cc2c(=O)n3ccccc3nc2n1CCc1ccccc1 | inactive | –
Cc1ccc2c(c1)/C(=C/c1ccc(F)cc1)C(=O)N2 | inconclusive [cytotoxic, single point] | –
COc1cc(CNC(C)(C)C)cc(Br)c1OCc1cccs1 | inconclusive [cytotoxic, single point] | –
O=C(CCS(=O)(=O)c1ccccc1)Nc1nccs1 | inconclusive [rising, single point] | –
CCc1nc2ccc(C(=O)NCCCN3CCN(c4ccc(F)cc4)CC3)cc2nc1CC | inconclusive [cytotoxic, single point] | –
O=[N+]([O-])c1cc(C(F)(F)F)ccc1NCCc1c[nH]c2ccc(O)cc12 | active: 12.6 µM | –
c1ccc2c(C3=NNC(=NC4CCCCC4)SC3)c[nH]c2c1 | inconclusive [cytotoxic, single point] | –
COc1ccc(N2CCN(c3cc(=O)n(Cc4ccc(F)cc4)c(=O)[nH]3)CC2)cc1 | – | inconclusive: -32.2% [cytotoxic]
COCCNc1nc(NCc2cc(-c3ccc(OC)cc3)no2)c2sccc2n1 | inconclusive [cytotoxic, single point] | –
Cc1cccc(OCC(=O)NC2CCCc3ccccc32)c1C (stereo not given) | inconclusive [cytotoxic, single point] | –
Cc1ccc(S(=O)(=O)NCC(c2cccnc2)N2CCN(Cc3ccccc3)CC2)cc1 (stereo not given) | inactive | –
CCCCN1CC(=O)N2[C@H]3c4cc(Cl)ccc4OC[C@@H]3[C@H](c3ccccc3)[C@]2(C)C1=O | – | inconclusive: 36.3%
O=C(c1ccccc1)c1ccc(-c2ccc(O)cc2)cc1 | active: 18.4 µM | –
O=C(C1CCN(S(=O)(=O)c2cccnc2)CC1)N1CCN(c2ccc(Cl)cc2)CC1 | inconclusive [cytotoxic, single point] | –
CN(C)CCCN(C(=O)c1ccc(S(=O)(=O)N(C)Cc2ccccc2)cc1)c1nc2cc3c(cc2s1)OCO3 | inconclusive [cytotoxic, single point] | –

Structure (SMILES) | Potency | activity, negative = less viability
Cn1c(=O)c2c3c(sc2n2c(SCC(N)=O)nnc12)CC(C(C)(C)C)CC3 (stereo not given) | inconclusive [cytotoxic, single point] | –
CCOc1ccccc1CNC(=O)CCC(=O)N1Cc2ccccc2Oc2ncccc21 | inactive | –
CCCCCc1ccc(C(=O)CCCC)c(=S)[nH]1 | inconclusive [cytotoxic, single point] | –
Cc1c(OCC(=O)N2CCC(C(=O)O)CC2)ccc2c1oc(=O)c1ccccc12 | inactive | –
CC(=O)Nc1cccc(-c2ccnc3c2CC(C(=O)Nc2cccc(OC(F)(F)F)c2)O3)c1 (stereo not given) | inconclusive [cytotoxic, single point] | –
CCc1nc2ccc(C(=O)Nc3cccc(OC)c3)cn2c1N(CC)Cc1cccc(Br)c1 | inconclusive [cytotoxic, single point] | –
CC(C)OC(=O)CSc1nc2ncc(Cl)cc2[nH]1 | inactive | –
Cc1ccc(Nc2nc(N3CCOCC3)c3ccccc3n2)cc1 | inconclusive [cytotoxic, single point] | –
Cc1oc(=O)c(NC(=O)c2ccc(Cl)cc2)cc1C(=O)c1ccccc1 | inconclusive [cytotoxic, single point] | –
O=C(CN(C(=O)c1csnn1)c1ccc(F)cc1)NCCc1ccccc1 | inactive | –
Cc1ccc(Nc2nc(N)nc(-c3oc4ccccc4c3C)n2)cc1 | active: 0.0065 µM | –
O=C(c1cc(-n2cnnc2)ccc1Cl)N1CCN(c2nc(-c3ccccc3)cs2)CC1 | – | inconclusive: -35.7% [cytotoxic]
CNC(=O)c1c(I)c(C(=O)NCC(=O)Nc2c(I)c(C(=O)O)c(I)c(C(=O)NCCO)c2I)c(I)c(N(C)C(C)=O)c1I | inconclusive [rising, partial curve, poor fit] | –
Cc1ccc(-c2csc(N/N=C/c3ccco3)n2)cc1 | inactive | –
COc1cc(Nc2ccccn2)cc(C(=O)Nc2cccc(C(F)(F)F)c2)c1 | inconclusive [cytotoxic, single point] | –
Cc1ccc(C(=O)NNC(=O)C2CC2)cc1Br | inconclusive [rising, partial curve] | –
CCOCCC(=O)Nc1ccc2c(c1)c(=O)n(C)n2-c1ccc2ccccc2c1 | inconclusive [cytotoxic, full curve] | –
Oc1ccc(C=NNc2nc3ccccc3s2)c(O)c1 | inconclusive [cytotoxic, partial curve] | –
N/C(=N\OC(=O)c1cccs1)c1cccnc1 | inconclusive [rising, partial curve, poor fit] | –
CCOc1cc(CNCc2ccccc2)ccc1OCc1ccc(Cl)cc1 | active: 14.6 µM | –
COc1ccc(Cc2nc3c4c(ncn3n2)Oc2ccc3ccccc3c2C4c2ccc(OC)c(OC)c2)cc1 (stereo not given) | inactive | –
Cc1cc(NCCc2ccccc2F)n2ncnc2n1 | inactive | –
O=c1nc(-c2ccccc2Cl)c2cc(F)ccc2[nH]1 | inactive | –
CCCCNc1cc(C(=O)O)cc(S(N)(=O)=O)c1Oc1ccccc1 | inconclusive [rising, partial curve] | –

Structure (SMILES) | Potency | activity, negative = less viability
O=C1NC(Cc2c[nH]c3ccccc23)C(=O)N1Cc1cccc2ccccc12 (stereo not given) | inconclusive [cytotoxic, partial curve] | –
Cc1ccc(NC(=O)c2ncn(CCCN3CCN(Cc4cccc5ccccc45)CC3)n2)cc1C | inconclusive [cytotoxic, single point] | –
FC(F)Oc1ccc(-c2csc(Cc3nnc4n3CCCCC4)n2)cc1 | inactive | –
O=C(Nc1nc(-c2ccccn2)cs1)c1cc(S(=O)(=O)N2CCOCC2)ccc1F | inconclusive [cytotoxic, partial curve] | –
CCN(CC)CCn1c(SCC(=O)Nc2cccc(OC)c2)nc2c(sc3ccccc32)c1=O | inconclusive [cytotoxic, partial curve] | –
CC(=O)Nc1ccccc1C(=O)C(=O)Nc1ccc(Cl)cc1 | inactive | –
CCCCCCN1C[C@H](n2cc(COC(=O)c3ccccc3)nn2)[C@@H](O)C[C@@H]1c1ccc(Cl)cc1 | inconclusive [cytotoxic, single point] | –
CN(C(=O)c1ccccc1C(=O)OCC(=O)Nc1ccccc1)c1ccccc1 | inactive | –
Cc1ccc2nc(SCc3ccc([N+](=O)[O-])cc3)[nH]c2c1 | inconclusive [cytotoxic, single point] | –
COC(=O)c1sc(S(=O)(=O)NC(Cc2ccccc2)C(=O)O)c(C(=O)OC)c1C (stereo not given) | inactive | –
CCOC(=O)[C@]12CCCC=C1N(Cc1ccccc1)C(=O)[C@H](CC(=O)NCc1ccccc1)C2 | inconclusive [cytotoxic, single point] | –
Cc1cc(NC(=O)C2CCCC2)nc2c1c(=O)oc1ccccc12 | inactive | –
Cc1ccccc1N=C1SC(CC(=O)Nc2ccc3ccccc3c2)C(=O)N1Cc1ccccn1 (stereo not given) | inconclusive [cytotoxic, single point] | –
O=C(NNC(=S)NC(=O)c1sc2ccccc2c1Cl)c1ccc(Cl)cc1 | inconclusive [cytotoxic, single point] | –
CC1(C(=O)N2CC3(CC(c4ccccc4)=NO3)C[C@H]2C(=O)NCC(N)=O)CC1 (stereo not given in full) | inconclusive [rising, single point] | –
Cc1ccc(OCCCC(=O)Nc2ccc(N3CCOCC3)cc2)c(C)c1 | inconclusive [cytotoxic, single point] | –
CCOC(=O)Cc1csc(NC(=O)CSc2nc(C)cc(C)n2)n1 | inactive | –
Cc1ccsc1/C=N/Nc1nc2ccccc2s1 | inconclusive [cytotoxic, single point] | –
Cn1c(=O)c2c(nc(NCCCO)n2Cc2cccc(C(F)(F)F)c2)n(C)c1=O | inactive | –
CCC(=C/c1sc2ccc3ccccc3c2[n+]1C)/C=C1\Sc2ccc3ccccc3c2N1C | – | inconclusive: -0.444% [cytotoxic]
COc1ccc(C(=O)Nc2ccc(S(=O)(=O)N3CCCCC3C)cc2)c(OC)c1OC (stereo not given) | inconclusive [cytotoxic, single point] | –
Cc1ccc(NC(=S)N(CCCN2CCCC2)Cc2cccn2Cc2ccc(Cl)cc2)cc1Cl | inconclusive [cytotoxic, partial curve, poor fit] | –
